{"source": "PubChem BioAssay AID488969", "about": "(Vanderbilt High Throughput Screening Facility, 2010)", "note": "Over roughly 110,000 compounds, “z-score” has its median near -0.1; the highest 2% begin near 2. Some of the results follow. Calls of active or inactive are those of the source.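 Rule for the calls: active = z-score in the third read window above 3 or below -3; inactive = the rest.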", "data": [{"target": "Metabotropic glutamate receptor 8 (Rattus norvegicus) (UniProt P70579)", "sequence (P70579 whole entry, looked up)": "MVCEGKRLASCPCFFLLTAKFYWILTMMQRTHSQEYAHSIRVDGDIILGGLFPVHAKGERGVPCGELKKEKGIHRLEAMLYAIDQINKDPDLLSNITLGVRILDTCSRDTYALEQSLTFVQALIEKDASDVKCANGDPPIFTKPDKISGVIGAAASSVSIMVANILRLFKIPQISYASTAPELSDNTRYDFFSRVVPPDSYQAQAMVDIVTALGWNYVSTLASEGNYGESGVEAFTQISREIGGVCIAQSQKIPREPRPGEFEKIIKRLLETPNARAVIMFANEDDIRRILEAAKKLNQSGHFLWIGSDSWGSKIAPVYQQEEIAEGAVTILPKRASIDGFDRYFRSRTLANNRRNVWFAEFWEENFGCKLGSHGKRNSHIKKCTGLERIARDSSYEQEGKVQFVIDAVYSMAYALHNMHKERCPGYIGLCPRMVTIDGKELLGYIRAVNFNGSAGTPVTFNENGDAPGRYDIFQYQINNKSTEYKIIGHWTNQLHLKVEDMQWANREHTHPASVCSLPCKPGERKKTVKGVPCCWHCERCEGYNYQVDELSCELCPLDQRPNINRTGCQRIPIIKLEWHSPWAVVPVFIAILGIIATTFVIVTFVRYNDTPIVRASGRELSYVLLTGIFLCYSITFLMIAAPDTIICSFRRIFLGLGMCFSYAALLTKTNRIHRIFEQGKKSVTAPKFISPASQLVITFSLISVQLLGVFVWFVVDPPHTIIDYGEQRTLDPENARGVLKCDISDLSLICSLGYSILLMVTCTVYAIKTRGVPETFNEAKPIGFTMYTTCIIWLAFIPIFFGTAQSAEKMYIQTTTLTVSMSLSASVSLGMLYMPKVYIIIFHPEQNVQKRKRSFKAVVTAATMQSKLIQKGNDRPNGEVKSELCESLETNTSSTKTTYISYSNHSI", "test": "rat mGluR8 modulators via GIRK flux, primary screen, cell-based, thallium flux, HTS (AID 488969)", "settings": "HEK293 rat mGluR8, GIRK (G protein-gated inwardly rectifying potassium channel) thallium flux, FluoZin2; at 10 µM; stronger effect = higher value; submaximal glutamate (EC20) added with thallium", "values": [{"smiles": "CCN1CCN(c2nc3ccccc3nc2C(C#N)S(=O)(=O)c2ccc(C)c(C)c2)CC1", "note": "(stereo not drawn)", "z-score": -0.433}, {"smiles": "Cc1ccc(S(=O)(=O)N(c2cccc(C)c2)C2CCS(=O)(=O)C2)cc1", "note": "(stereo not drawn)", "z-score": -0.0872}, {"smiles": "CCc1nnc(NC(=O)CSc2nnc(-c3ccc(S(=O)(=O)N(CC)CC)cc3)n2CC)s1", "z-score": -0.154}, {"smiles": "COc1ccc(OC)c(-c2cc(C(=O)N3CCN(c4ncccn4)CC3)c3ccccc3n2)c1", "z-score": -2.06}, {"smiles": "Cc1ccc(NC(=O)c2cc(N3C(=O)C4CC=CCC4C3=O)ccc2N2CCCCC2)cc1", "note": "(stereo not drawn)", "z-score": -0.0875}, {"smiles": "CCc1ccc(C2C(C#N)=C(N)Oc3n[nH]c(CC(=O)OC)c32)cc1", "note": "(stereo not drawn)", "z-score": -0.139}, {"smiles": "O=C(CCCn1c(SCC(=O)NCC2CCCO2)nc2ccccc2c1=O)NCc1ccccc1", "note": "(stereo not drawn)", "z-score": -0.11}, {"smiles": "CC(C)NC(=O)Cn1c(=O)c2c(ncn2Cc2ccccc2)n(Cc2ccccc2)c1=O", "z-score": -0.566}, {"smiles": "COc1ccc(CNC(=O)CCSCc2ccccc2Cl)c(OC)c1", "z-score": -0.407}, {"smiles": "CC(=O)NC1CC2CCCC(C1)N2C(=O)Nc1ccc(Cl)c(C(F)(F)F)c1", "note": "(stereo not drawn)", "z-score": -0.621}, {"smiles": "CN(c1ccccc1)S(=O)(=O)c1cccc(NC(=O)Cn2cnc3ccccc3c2=O)c1", "z-score": -0.311}, {"smiles": "Cc1ccc(NC(=O)c2ccc(N3C(=O)C4CC=C(Cl)CC4C3=O)cc2)cc1", "note": "(stereo not drawn)", "z-score": -0.136}, {"smiles": "O=C(CC(NC(=O)c1ccccc1Cl)c1ccccc1)Nc1ccc2c(c1)OCO2", "note": "(stereo not drawn)", "z-score": -0.214}, {"smiles": "Cc1cc(OCC(=O)NCCN2CCOCC2)cc(C)c1Br", "z-score": 0.00352}, {"smiles": "O=C(c1ccc(Cl)cc1)N1CCC(O)(CSc2ccc(Cl)cc2)CC1", "z-score": 0.0754}, {"smiles": "O=C(OCc1ccc(Cl)cc1Cl)c1cccnc1Cl", "z-score": -0.157}, {"smiles": "Cn1cnnc1SC(C(=O)Nc1ccc(F)cc1)c1ccccc1", "note": "(stereo not drawn)", "z-score": -0.0653}, {"smiles": "COc1ccc(CCNC(=S)Nc2cc(C)ccc2C)cc1", "z-score": 0.993}, {"smiles": "CC1=CCC2C(=O)N(c3cc(C)on3)C(=O)C2C1", "note": "(stereo not drawn)", "z-score": -0.233}, {"smiles": "Oc1cc2ccccc2cc1-c1nnc2n1-c1ccccc1SC2", "z-score": -0.0288}, {"smiles": "Cc1cc(C)c(C)c(S(=O)(=O)N2CCC(C(=O)Nc3ccccc3N3CCOCC3)CC2)c1C", "z-score": -0.125}, {"smiles": "CC(=O)c1ccn(S(=O)(=O)c2ccccc2)c1", "z-score": 0.134}, {"smiles": "COc1ccc(-n2nc(C(=O)NCc3ccco3)c3ccccc3c2=O)cc1", "z-score": -0.158}, {"smiles": "Cc1cccc(C)c1OCc1nc2ccccc2c(=O)n1/N=C/c1c[nH]c2ccccc12", "z-score": -0.077}, {"smiles": "COc1ccccc1CNC(=O)c1nn(-c2ccc(C)cc2)c(=O)c2c1c1ccccc1n2C", "z-score": -0.421}, {"smiles": "CCN(CC)C(=O)CSc1nc2ncc(Cl)cc2[nH]1", "z-score": 0.365}, {"smiles": "C=CCN(CC=C)C(=O)C1CC(=O)N(c2ccc(Br)cc2)C1", "note": "(stereo not drawn)", "z-score": 0.000969}, {"smiles": "Cc1cc(OC(=O)c2cc(F)c(F)cc2Cl)nc(C)n1", "z-score": 0.0986}, {"smiles": "Cc1cc(Br)ccc1NC(=O)CNC(=O)CN(C)Cc1nc2ccccc2c(=O)[nH]1", "z-score": 0.0175}, {"smiles": "Cc1onc(-c2ccccc2Cl)c1C(=O)NCCCN1CCOCC1", "z-score": 0.356}, {"smiles": "CCOc1ccc(N2C(=O)CC(N3CCc4ccccc43)C2=O)cc1", "note": "(stereo not drawn)", "z-score": 1.67}, {"smiles": "CCN(CC)S(=O)(=O)c1cc(NS(=O)(=O)c2cccc(Cl)c2Cl)ccc1C", "z-score": -0.439}, {"smiles": "O=C1NCCc2c1[nH]c1ccccc21", "z-score": 1.33}, {"smiles": "COc1ccccc1C(=O)Nc1ccccc1SC", "z-score": -2.26}, {"smiles": "N#CCCN(Cc1ccccc1)C(=S)NC(=O)c1ccccc1", "z-score": 2.39}, {"smiles": "CCOc1ccccc1/C=N/NC(=O)Cc1csc(Nc2cccc(C(F)(F)F)c2)n1", "z-score": -0.0917}, {"smiles": "c1ccc2c(c1)c1ccccc1n1c(-c3ccc4c(c3)OCO4)nnc21", "z-score": -0.399}, {"smiles": "Cc1cc2c(cc1C)C(c1cc(Br)ccc1F)CC(=O)N2", "note": "(stereo not drawn)", "z-score": -0.204}, {"smiles": "O=C1c2ccccc2C(=O)C12OC2c1ccc(Cl)cc1", "note": "(stereo not drawn)", "z-score": -0.344}, {"smiles": "COc1cccc(C(=O)Nc2nc(-c3ccc(S(=O)(=O)N4CCOCC4)cc3)cs2)c1", "z-score": -0.223}, {"smiles": "CCCCN(CC)C(=O)CSc1nc2ccccc2c(=O)n1CC1COc2ccccc2O1", "note": "(stereo not drawn)", "z-score": -0.739}, {"smiles": "Cc1nc(-c2ccc(C(=O)N3CCOCC3)cc2)cs1", "z-score": 0.0461}, {"smiles": "CCOc1ccc(NC(=O)C(C)Oc2ccccc2C(=O)Nc2ccc(C)c(Cl)c2)cc1", "note": "(stereo not drawn)", "z-score": -0.167}, {"smiles": "O=C(Nc1ccc2c(c1)OCO2)C1CCCN(S(=O)(=O)Cc2ccccc2)C1", "note": "(stereo not drawn)", "z-score": -0.171}, {"smiles": "Cc1nc2nc(SCC(=O)c3cccc([N+](=O)[O-])c3)[nH]c2cc1Br", "z-score": -0.352}, {"smiles": "COC(=O)/C=C1/N/C(=N\\c2nc(C)cc(C)n2)N(c2ccc(Cl)cc2)C1=O", "z-score": -0.0567}, {"smiles": "COc1cc(NC(=O)c2ccc(Br)o2)ccc1NC(=O)c1ccccc1Cl", "z-score": -1.12}, {"smiles": "COc1cc(C(=O)OCC(=O)N(C)Cc2ccccc2)cc(OC)c1OC", "z-score": -0.417}, {"smiles": "Cc1ccc(C(=O)N/C(=C\\c2cccs2)C(=O)NCc2cccnc2)cc1", "z-score": -0.235}, {"smiles": "COc1ccc(Cc2nc(C(=O)Nc3ccccc3)cs2)cc1", "z-score": -0.483}, {"smiles": "COc1ccc(C2C(C(=O)Nc3ccc4c(c3)OCCO4)c3ccccc3C(=O)N2C)cc1", "note": "(stereo not drawn)", "z-score": 0.04}, {"smiles": "CCCS(=O)(=O)N1CCC(C(=O)NCc2ccco2)CC1", "z-score": 0.18}, {"smiles": "CCC(Oc1ccccc1)C(=O)Nc1nnc(C(F)(F)F)s1", "note": "(stereo not drawn)", "z-score": -0.697}, {"smiles": "CCOC(=O)COc1ccsc1C(=O)OC", "z-score": -0.0579}, {"smiles": "CCn1c(NC(=O)c2ccc(F)cc2)c2ccccc2nc1=O", "z-score": 0.0383}, {"smiles": "COc1cccc(CN2C(=O)Nc3ccccc3C(=O)N2C(C)(C)C)c1", "z-score": 0.149}, {"smiles": "Cc1cc(NC(=O)c2cc(-c3ccccc3C)nc3ccccc23)no1", "z-score": -0.217}, {"smiles": "COc1ccc(C2C(Oc3ccccc3)C(=O)N2c2ccc(C)c(C)c2)cc1OC", "note": "(stereo not drawn)", "z-score": -0.263}, {"smiles": "COc1ccc(/C=C/C(=O)Oc2cccc(/C=N/NC(=O)COc3c(C)cccc3C)c2)cc1", "z-score": -0.0501}, {"smiles": "CC(C)CCn1c(-c2nonc2N)nc2ccccc21", "z-score": -0.118}, {"smiles": "CCOC(=O)C1=C(C)N(C)C(=O)NC1c1cc2c(cc1Br)OCO2", "note": "(stereo not drawn)", "z-score": 1.61}, {"smiles": "Cc1ccccc1OCCn1cc(C(=S)N2CCCC2)c2ccccc21", "z-score": -0.0633}, {"smiles": "CCC(=O)N(Cc1cc2c(C)cc(C)cc2[nH]c1=O)C1CCCCC1", "z-score": -1.28}, {"smiles": "COc1ccc2c3c(cccc13)NN=C2C", "z-score": 0.39}, {"smiles": "CC(C)CC(=O)Nc1sc2c(c1C#N)CC(C)(C)NC2(C)C", "z-score": -0.251}, {"smiles": "O=C(COc1c(Br)cc(Br)c2cccnc12)N1CCc2ccccc2C1", "z-score": "active: 3.14"}, {"smiles": "Cc1ccc(S(=O)(=O)CCC(=O)Nc2ccc3c(c2)OCO3)cc1", "z-score": -0.0887}, {"smiles": "Cc1ccc(CN2CCN(CC(=O)NC(C)CCc3ccccc3)C2=O)cc1", "note": "(stereo not drawn)", "z-score": -0.123}]}]}
